Measured values as given in the antibiotic and cytotoxicity screens of Wong et al. (2023).
The list shows a part of the results.

Experiments:
[1] = test system: HSkMC (human skeletal muscle cells); assay: cytotoxicity call (relative viability < 0.9); details: 10 µM
[2] = test system: HepG2; assay: cytotoxicity call (relative viability < 0.9); details: 10 µM
[3] = test system: S. aureus RN4220; assay: growth inhibition call (relative growth <= 0.2); details: 50 µM

SMILES | cytotoxicity call [1] | cytotoxicity call [2] | growth inhibition call [3]
Cc1noc(C)c1S(=O)(=O)Nc1ccc2c(c1)CC(=O)N([C@H](C)CO)C[C@H](C)[C@@H](CN(C)CC1CC1)O2 | inactive | inactive | inactive
C[C@@H]1CCCCO[C@@H](CN(C)C(=O)Nc2ccccc2)[C@H](C)CN([C@H](C)CO)C(=O)c2cc(NS(=O)(=O)c3ccccc3)ccc2O1 | inactive | inactive | inactive
C[C@@H]1CN([C@H](C)CO)C(=O)c2c(c3ccccc3n2C)-c2ccccc2CO[C@@H]1CN(C)S(C)(=O)=O | inactive | inactive | inactive
C[C@@H]1CN([C@H](C)CO)C(=O)c2cc(NS(=O)(=O)c3ccccc3)ccc2O[C@H]1CN(C)Cc1ccncc1 | inactive | inactive | inactive
C[C@H]1CN([C@@H](C)CO)C(=O)CCCn2nncc2CO[C@H]1CN(C)C(=O)Nc1cccc(C(F)(F)F)c1 | inactive | inactive | active
C[C@@H]1CN([C@H](C)CO)C(=O)c2cc(NS(=O)(=O)c3ccccc3)ccc2O[C@@H]1CN(C)S(=O)(=O)c1cn(C)cn1 | inactive | inactive | inactive
CC(=O)OCC=C(C)C=CC=C(C)C=CC1=C(C)CCCC1(C)C | inactive | inactive | inactive
Cc1ccc(S(=O)(=O)N2C[C@@H](O)COC[C@@H]3O[C@@H](CC(=O)NCc4ccc(Cl)c(Cl)c4)CC[C@H]32)cc1 | inactive | active | inactive
CO[C@@H]1CN(C)C(=O)c2cc(NC(=O)Nc3cccc(Cl)c3)ccc2OC[C@H](C)N(C(=O)Nc2c(C)noc2C)C[C@@H]1C | inactive | inactive | inactive
Nc1nc2ncc(=O)[nH]c2c(=O)[nH]1 | inactive | inactive | inactive
Cc1noc(C)c1NC(=O)N(C)C[C@H]1OCCCC[C@@H](C)Oc2ccc(NS(=O)(=O)c3cccs3)cc2C(=O)N([C@H](C)CO)C[C@H]1C | inactive | inactive | inactive
C[C@@H]1CN([C@@H](C)CO)C(=O)c2cc(NC(=O)Nc3ccc(C(F)(F)F)cc3)ccc2O[C@H]1CN(C)C(=O)Nc1cccc2ccccc12 | inactive | inactive | inactive
C[C@@H]1CN([C@H](C)CO)C(=O)CCCn2nncc2CO[C@H]1CN(C)S(=O)(=O)c1ccc2ccccc2c1 | inactive | inactive | inactive
C[C@@H]1CN([C@H](C)CO)S(=O)(=O)c2ccc(/C=C/c3ccccc3)cc2O[C@@H]1CN(C)C(=O)Nc1cc(F)ccc1F | inactive | active | inactive
C[C@H]1CN([C@@H](C)CO)C(=O)c2cc(NC(=O)Nc3ccc(C(F)(F)F)cc3)ccc2O[C@H]1CN(C)Cc1ccc(C(F)(F)F)cc1 | active | inactive | inactive
C[C@@H]1CN([C@H](C)CO)S(=O)(=O)c2ccc(-c3ccc(C#N)cc3)cc2O[C@@H]1CN(C)C(=O)CN(C)C | inactive | inactive | inactive
CCCCCNCC(N)=O | inactive | inactive | inactive
Cc1ccc(S(=O)(=O)Nc2cccc3c2O[C@H](CN(C)Cc2ccc(C(F)(F)F)cc2)[C@@H](C)CN([C@@H](C)CO)C3=O)cc1 | inactive | inactive | inactive
O=C(C[C@H]1CC[C@@H](NC(=O)CN2CCOCC2)[C@@H](CO)O1)NCCc1ccncc1 | inactive | inactive | inactive
C[C@@H]1CN([C@@H](C)CO)C(=O)c2cc(C#Cc3ccncc3)cnc2O[C@H]1CN(C)S(=O)(=O)c1ccccc1F | inactive | active | inactive
C[C@H]1CN([C@@H](C)CO)C(=O)c2cc(NC(=O)Cn3cnnn3)ccc2O[C@H]1CN(C)Cc1ccc(-c2ccccc2)cc1 | inactive | inactive | inactive
CC(C)NC(=O)N(C)C[C@@H]1OCCCC[C@H](C)Oc2ccc(NC(=O)Nc3ccc(C(F)(F)F)cc3)cc2C(=O)N([C@H](C)CO)C[C@@H]1C | active | inactive | inactive
C[C@@H]1CN([C@H](C)CO)S(=O)(=O)c2ccc(Br)cc2O[C@@H]1CN(C)Cc1ccc(-c2ccccc2)cc1 | inactive | inactive | inactive
CCS(=O)(=O)N1C[C@]2(CN(Cc3ccc4c(c3)OCO4)[C@@H](CO)c3c2c2ccc(cc2n3C)OC)C1 | inactive | inactive | inactive
C[C@@H]1CCCCO[C@H](CN(C)S(=O)(=O)c2ccccc2)[C@@H](C)CN([C@@H](C)CO)C(=O)c2cc(NC(=O)Nc3ccc(C(F)(F)F)cc3)ccc2O1 | inactive | inactive | inactive
